# Data reported in PubChem BioAssay AID894 (National Center for Advancing Translational Sciences (NCATS), 2007).
# Out of some 150,000 compounds screened, about 6,500 (4.3%) were called active. Inconclusive results, whose numbers are uncertain, are shown with a selection of clear calls. Calls come from the whole dose curve; as a rule, active = well fitted inhibition curve with a large enough effect (not every such curve was filed as active); inconclusive = small, poorly fitted or top-dose-only effect, or another doubt; inactive = no such curve, though single readings can be large or run the other way. No potency is given beside an inconclusive call; the fits are too rough.
# Target: 15-hydroxyprostaglandin dehydrogenase [NAD(+)] (Homo sapiens) (UniProt P15428)
# UniProt P15428, sequence (P15428 whole entry, looked up): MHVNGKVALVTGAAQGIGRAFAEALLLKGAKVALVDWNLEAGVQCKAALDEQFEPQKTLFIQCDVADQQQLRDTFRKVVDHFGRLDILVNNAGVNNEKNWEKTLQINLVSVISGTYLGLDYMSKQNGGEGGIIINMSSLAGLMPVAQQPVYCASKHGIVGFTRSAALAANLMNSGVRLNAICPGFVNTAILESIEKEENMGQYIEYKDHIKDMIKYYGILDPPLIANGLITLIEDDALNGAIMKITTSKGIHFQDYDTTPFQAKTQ
# Assay: qHTS Assay for Inhibitors of HPGD (15-Hydroxyprostaglandin Dehydrogenase)
# Conditions: purified HPGD, NADH fluorescence kinetic, PGE2 substrate; activity change, negative = inhibition: active compounds read low
# Method in brief: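 NADH formation kinetics: reaction with 30 uM PGE2 and 1 mM NAD+ (final), 20 nM enzyme, Tris-HCl pH 8 with Tween 20, after 15 min compound preincubation at room temperature. Fluorescence change, last versus first of five reads.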
# % is set by controls: 0 for no effect and ±100 for the full control effect; potency is the fitted concentration of half-maximal effect; tags give direction and shape of the fitted curve.
SMILES,Potency,"activity change, negative = inhibition"
Cc1csc(NC(=O)CSc2nc3sc(C)c(C)c3c(=O)[nH]2)n1,active: 12.6 µM,
Cc1cc(OCc2nn[nH]n2)c2c(C)c(CC(=O)O)c(=O)oc2c1,"inconclusive [inhibitor, full curve]",
COc1cc(C)ccc1OCCOc1cc(C)ccc1Cl,active: 2.24 µM,
Cc1cccc(NC(=S)NCC2CCCO2)c1 (centres undefined),active: 14.1 µM,
CC(=O)OCC1=C(C(=O)O)N2C(=O)C(NC(=O)Cc3cccs3)C2SC1 (centres undefined),active: 20 µM,
O=C(Nc1ncc2c(n1)-c1ccccc1OC2)c1ccc(Cl)cc1Cl,"inconclusive [inhibitor, partial curve]",
CCc1ccc(C2CC(c3ccccc3)n3ncnc3N2)cc1 (centres undefined),,inactive: -10.7%
CC(C)(C)C(=O)NC(=S)Nc1ccc(F)cc1,,inactive: -12.6%
CCOC(=O)C1CCN(c2c(NCc3ccc(C(=O)NC4CCCC4)cc3)c(=O)c2=O)CC1,active: 2 µM,
Cn1c(NN)nc2sc3c(c2c1=O)CC(C)(C)OC3,"inconclusive [inhibitor, full curve, poor fit]",
COc1cc2c(cc1OC)C1CCC3=C([C@H](C)OC3=O)N1CC2 (some centres undefined),"inconclusive [inhibitor, partial curve]",
COc1ccc(C2=Nn3c(nnc3-c3cccnc3)SC2)cc1OC,"inconclusive [inhibitor, partial curve]",
COCCCNS(=O)(=O)c1ccc2c3c(cccc13)C(=O)S2,"inconclusive [inhibitor, partial curve]",
Cc1ccc(NC(=O)CC2SC3=NCCCN3C2=O)c(C)c1 (centres undefined),,inactive: -12.1%
Cc1cccn2c(=O)c3cc(C(=O)NCC4CCCO4)c(=N)n(CCN4CCOCC4)c3nc12 (centres undefined),"inconclusive [inhibitor, partial curve]",
Cc1ccc(S(=O)(=O)N2CCCCC2)cc1NC(=O)Cc1c[nH]c2ccccc12,,inactive: -6.74%
COC(=O)c1cc2c(s1)-c1ccccc1CC2,"inconclusive [inhibitor, partial curve]",
COc1cc(NC(=O)CN2CCN(S(=O)(=O)c3ccc(C(C)C)cc3)CC2)cc(OC)c1,,inactive: -14.2%
CCOC(=O)N1CCN(C(=O)/C=C/c2ccc3c(c2)OCO3)CC1,"inconclusive [inhibitor, partial curve]",
O=C(CCCc1nc(-c2ccccc2)no1)Nc1cccnc1,,inactive: -3.83%
Fc1cccc2sc(Nc3nc4c(F)cccc4s3)nc12,"inconclusive [inhibitor, partial curve]",
C/C(=N\O)C1(C)N(O)C(C)(C)C(c2ccc(F)cc2)=[N+]1[O-] (centres undefined),,inactive: -15.3%
Cc1c(Cl)cccc1NC(=S)NCC(C)C,,inactive: -14.9%
Cc1ccc(CN(c2ccc(C(=O)N3CCCC3)cc2)S(C)(=O)=O)cc1,,inactive: -12.9%
Cc1ccc(S(=O)(=O)NCCCCCC(N)=O)cc1,,inactive: -1.42%

SMILES,Potency,"activity change, negative = inhibition"
COC(=O)C1=C(N)c2ccccc2C1(C#N)c1ccccc1 (centres undefined),"inconclusive [inhibitor, partial curve]",
CCn1c2ccccc2n2c(=O)c(=O)n(CC(=O)Nc3ccc(C(C)C)cc3)nc12,"inconclusive [inhibitor, partial curve]",
CCCCNC(=O)CSc1nc2ccc(NC(=O)CSc3nnc(COc4ccccc4C)n3C)cc2s1,"inconclusive [inhibitor, partial curve]",
COc1ccc(CNC(=O)CN2C(=O)C3CCCN3c3ncc(Cl)cc32)cc1 (centres undefined),"inconclusive [inhibitor, single point]",
c1ccc2c(c1)oc1c(Nc3ccc(CN4CCOCC4)cc3)ncnc12,,inactive: -27.8%
CC(=O)Oc1ccc(N2C(=O)C3C4C=CC(O4)C3C2=O)cc1 (centres undefined),active: 31.6 µM,
COc1cc2c(cc1NC(=S)NC(=O)/C=C/c1ccco1)oc1ccccc12,,inactive: -12%
O=C(CN1CCC(n2nnc3cc(F)ccc32)CC1)NCc1ccco1,,inactive: -20.5%
CC1(C)CC(CC(=O)Nc2ccccn2)C(=O)O1 (centres undefined),,inactive: -5.25%
COc1ccc(-c2nn3c(C4CCCCC4)nnc3s2)cc1OC,"inconclusive [inhibitor, partial curve]",
CCN1CCN(C(=O)c2ccc(CN(c3ccccc3)S(=O)(=O)c3ccccc3)cc2)CC1,active: 14.1 µM,
O=C(NCCc1cccs1)C1CC(c2ccccc2[N+](=O)[O-])=NO1 (centres undefined),,inactive: -5.36%
Cc1ccc(S(=O)(=O)/N=c2\sccn2C)cc1,,inactive: -7.23%
CSc1ccc(OC2CCCCC2NS(=O)(=O)c2ccc(Cl)cc2)cc1 (centres undefined),,inactive: -12.6%
O=C1CCCC2=C1C(c1ccncc1)c1c(nc(SCc3ccccc3Cl)[nH]c1=O)N2 (centres undefined),"inconclusive [inhibitor, partial curve]",
CC(=O)c1ccc(N2CCN(C(=O)c3cc4c(-c5ccccc5F)nn(C)c4s3)CC2)cc1,"inconclusive [inhibitor, partial curve]",
c1ccc(CNc2nc3ccccc3[nH]2)cc1,,inactive: -13.3%
O=C(c1cc2nc(-c3ccccc3)cc(-c3ccccc3)n2n1)N1CCN(C(=O)c2ccco2)CC1,"inconclusive [inhibitor, partial curve]",
O=C(COC(=O)c1cccc(S(=O)(=O)NCc2ccccc2)c1)c1ccccc1,active: 20 µM,
COC(=O)c1ccc(S(=O)(=O)c2ccccc2)c(N)c1,"inconclusive [inhibitor, partial curve]",
Cc1ccc(O)c(-c2cc(-c3ccccc3F)[nH]n2)c1,active: 4.47 µM,
COc1ccc2nc(C)cc(SCC(=O)N/N=C/c3c(OC)ccc4ccccc34)c2c1,"inconclusive [inhibitor, partial curve]",
N#Cc1ccc(-c2ccc(F)cc2)nc1Oc1ccccc1,"inconclusive [inhibitor, single point]",
O=C(CSc1nc(-c2ccccc2)nn1C(=O)c1ccccc1)Nc1cccc([N+](=O)[O-])c1,active: 1.26 µM,
COc1ccccc1C(=O)NC(C)c1ccccc1 (centres undefined),"inconclusive [inhibitor, partial curve]",

SMILES,Potency,"activity change, negative = inhibition"
O=S(=O)(/N=C(/Nc1ccc(F)cc1F)c1ccccc1)c1ccc(Br)cc1,,inactive: -7.81%
O=c1c2ccccc2c(C=Nc2ccc(S(=O)(=O)N3CCCCC3)cc2)c(O)n1-c1ccc(Cl)cn1,,inactive: -14.7%
CCOC(=O)CCCCC(=O)c1[nH]c(=O)[nH]c1CSc1nnc2c3ccccc3n(C(C)C)c2n1,"inconclusive [inhibitor, partial curve]",
CCOc1cc(C(=S)N2CCOCC2)ccc1O,active: 12.6 µM,
COCOc1c2c(c(OCOC)c3c(OCOC)cccc13)/C(=N/NS(C)(=O)=O)C1=C2CCCC1,"inconclusive [inhibitor, single point]",
O=C1c2ccccc2C(=O)N1CC(=O)N1c2ccccc2Sc2ccc(C(F)(F)F)cc21,"inconclusive [inhibitor, partial curve]",
Cc1ccc(OCc2nc(-c3ccccc3)no2)c(C)c1,"inconclusive [inhibitor, partial curve]",
COc1cc(O)c2c(c1)OC(C)(C)CC2=O,,inactive: -10.6%
CCc1cc(C(C)=O)c(O)cc1OCCCCCC(C)(C)c1nn[nH]n1,active: 20 µM,
CC(C)OC(=O)Cn1nnc(-c2ccccc2)n1,,inactive: -3.18%
CC(=O)Nc1cccc(/C(C)=N/NC(=O)c2ccccc2Cl)c1,,inactive: -5.88%
CCN(CC)CC(=O)Nc1ccc(-c2nc3cc(NC(=O)CN(CC)CC)ccc3o2)cc1,"inconclusive [inhibitor, partial curve]",
COc1ccc2cc3cc(C(=O)NCCN4CCc5ccccc5C4)sc3nc2c1,"inconclusive [inhibitor, partial curve]",
COCCn1cc(C(=O)N2CCN(C)CC2)c2c3ccccc3n(C)c2c1=O,"inconclusive [inhibitor, partial curve]",
CC1CCCCN1C(=O)CSc1ccc(-c2ccc(F)cc2)nn1 (centres undefined),active: 22.4 µM,
CCc1cccc(NC(=O)Cn2cccc2)c1,"inconclusive [inhibitor, partial curve]",
O=c1cc(-c2ccccc2)oc2cc(O[C@@H]3O[C@H](CO)[C@@H](O)[C@H](O)[C@H]3O)c(O)c(O)c12,active: 11.2 µM,
CC1Cc2ccccc2N1Cc1nc2cc(Cl)ccc2c(=O)[nH]1 (centres undefined),,inactive: -23%
COc1cc(-c2nc3ccc(C)cn3c2Nc2ccc3c(c2)OCCO3)ccc1O,"inconclusive [inhibitor, partial curve]",
Cc1ccccc1NC(=O)c1cccc(S(=O)(=O)Oc2ccc([N+](=O)[O-])cc2)c1,"inconclusive [inhibitor, single point]",
Cc1cc(Cl)ccc1N=c1ssnc1Cl,active: 4.47 µM,
COc1cccc(Nc2ncc3nc(-c4ccc(F)cc4)c(=O)n(CCC#N)c3n2)c1,,inactive: -8.76%
CC(=O)c1c(O)ccc2c(-c3ccccc3)cc(=O)oc12,"inconclusive [inhibitor, partial curve]",
CCOC(=O)c1c(C2COc3ccccc3O2)csc1NC(=O)c1ccccc1 (centres undefined),"inconclusive [inhibitor, partial curve]",
